Data from PubChem BioAssay AID1768 (National Center for Advancing Translational Sciences (NCATS), 2009).
Values joined by “and” are separate entries in the source; they are usually repeats but may differ in a detail not shown here. Identical values can stand only once. About 620 (0.23%) of roughly 270,000 compounds were called active. Inconclusive means that the source gave no clear call. Such entries were picked first, then a sample of the others. Calls follow the shape of the dose curve; as a rule, active = well fitted inhibition curve with a large enough effect in the polarisation, with a control signal flat (not every such curve was filed as active); inconclusive = small, poorly fitted or top-dose-only effect, or effect the other way, or a change in a side signal; inactive = no such curve, though single readings can be large or run the other way; the % refers to the polarisation. Potencies of inconclusive entries are doubtful fits and often do not repeat. A note “side channel” means that the fit belongs to a control or component signal, not to the main read-out.

target: Menin (Homo sapiens) (UniProt O00255); assay: qHTS Assay for Inhibitors Targeting the Menin-MLL Interaction in MLL Related Leukemias: Competition With Texas Red Labeled MLL-derived Mutant Peptide; conditions: fluorescence polarization; series mostly up to 61.6 µM
Potency is read from the fitted curve at half-maximal effect; tags tell the direction and shape of the fitted curve or compound fluorescence and quenching.

Sequence of UniProt O00255 (O00255 whole entry, looked up): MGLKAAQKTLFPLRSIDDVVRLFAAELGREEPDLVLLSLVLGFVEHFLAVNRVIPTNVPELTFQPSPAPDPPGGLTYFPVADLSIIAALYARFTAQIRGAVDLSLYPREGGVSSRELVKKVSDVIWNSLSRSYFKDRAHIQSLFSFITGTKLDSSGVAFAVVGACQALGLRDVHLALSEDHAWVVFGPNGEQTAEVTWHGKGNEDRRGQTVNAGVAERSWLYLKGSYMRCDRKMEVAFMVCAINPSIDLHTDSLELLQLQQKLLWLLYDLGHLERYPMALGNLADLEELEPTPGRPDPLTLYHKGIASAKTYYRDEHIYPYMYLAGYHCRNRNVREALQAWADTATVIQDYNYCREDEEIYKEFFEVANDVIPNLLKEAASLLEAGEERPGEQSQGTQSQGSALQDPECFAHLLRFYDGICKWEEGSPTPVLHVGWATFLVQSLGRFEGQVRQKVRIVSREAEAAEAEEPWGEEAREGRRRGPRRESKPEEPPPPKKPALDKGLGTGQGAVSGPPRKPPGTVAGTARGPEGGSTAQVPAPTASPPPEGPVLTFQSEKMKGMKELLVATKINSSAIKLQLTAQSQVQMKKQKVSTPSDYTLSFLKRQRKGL

Structure (SMILES) | Potency
CCN(CC)CCN(C(=O)c1c(F)cccc1F)c1nc2cc(C)cc(C)c2s1 | inconclusive: 5.01 µM [fluorescent, side channel, full curve, poor fit]
c1coc(C2Nc3ccccc3-c3nc4ccccc4n32)c1 (stereo unspecified) | inconclusive: 22.4 µM [quencher, single point]
COc1cc(OC)cc(C2=Nn3c(nnc3-c3ccccc3O)SC2)c1 | inconclusive: 28.2 µM [fluorescent, side channel, single point]
CC(C)NC(=NCc1ccc(Cl)cc1Cl)Nc1ccccc1 | inconclusive: 39.8 µM [fluorescent, side channel, single point]
Cc1cc(NC(=O)CSc2nnnn2-c2ccc(C)c(C)c2)no1 | inconclusive: 39.8 µM [fluorescent, side channel, single point]
CC(=O)c1cccc(NC(=O)c2ccccc2OCc2ccc(F)cc2)c1 | inconclusive: 39.8 µM [fluorescent, single point]
N#C/C(=N\Nc1cccc([N+](=O)[O-])c1)C(=O)c1ccc(Br)cc1 | inconclusive: 14.1 µM [quencher, side channel, partial curve]
O=C(NCc1ccccc1Cl)NC(=O)c1ccccc1 | inconclusive: 39.8 µM [fluorescent, side channel, single point]
CC(C)CCN(CC(=O)NC(C)(C)C)C(=O)C(=O)Nc1ccc2c(c1)OCCO2 | inconclusive: 39.8 µM [inhibitor, single point]
CCCc1cc(=O)n2[nH]c(-c3cc(OC)c(OC)c(OC)c3)nc2n1 | inconclusive: 25.1 µM [inhibitor, single point]
O=C1CCCC(O)=C1N=Nc1c(Cl)cc(Cl)cc1Cl | inconclusive: 17.8 µM [fluorescent, side channel, single point]
CCCCCCn1c(=O)[nH]c2nc3cc(N)ccc3nc2c1=O | inconclusive: 12.6 µM [quencher, side channel, partial curve]
Cc1ccc(C2C3=C(CCCC3=O)N=C3c4ccccc4C(=O)C32)cc1 (stereo unspecified) | inconclusive: 39.8 µM [quencher, side channel, single point]
Cc1ccc(Oc2coc3cc(O)ccc3c2=O)cc1 | inconclusive: 20 µM [quencher, side channel, partial curve]
Cc1ccc(-n2ncc(Cl)c2C(=O)NCc2ccccc2)cc1 | inconclusive: 22.4 µM [fluorescent, side channel, partial curve]
O=C(N/N=C/c1ccc[nH]1)c1cc(-c2cccs2)nc2ccccc12 | inconclusive: 28.2 µM [quencher, side channel, single point]
CC1(C)CC(=O)c2c(oc3cc(O)c(O)cc23)C1 | inactive and inconclusive: 31.6 µM [quencher, side channel, partial curve]
O=C(CSc1nnc(SCC(=O)c2ccco2)s1)c1ccco1 | inconclusive: 35.5 µM [quencher, side channel, single point]

Structure (SMILES) | Potency
O=C1c2ccccc2-c2nnc(-c3ccc(O)cc3)cc21 | inconclusive: 20 µM [quencher, side channel, partial curve]
CCOC(=O)C1=C(CNCCc2ccc(Cl)cc2)NC(=O)NC1c1ccc2c(c1)OCO2 (stereo unspecified) | inconclusive: 2 µM [fluorescent, side channel, partial curve]
CNc1cc(CSC)nc(SCc2ccc(Cl)c(Cl)c2)n1 | inactive
COc1ccc(N2CCN(C(=O)CCCN3C(=O)c4cccc5cccc(c45)C3=O)CC2)cc1 | inconclusive: 39.8 µM [inhibitor, single point]
CS(=O)(=O)N(CC(=O)N1CCN(Cc2ccc3c(c2)OCO3)CC1)c1ccc2c(c1)OCO2 | inconclusive: 8.91 µM [inhibitor, single point]
Cc1cc(C)c2cc(CN(CCN3CCCC3)C(=O)Nc3ccc(F)cc3)c(=O)[nH]c2c1 | inconclusive: 39.8 µM [fluorescent, side channel, single point]
Cc1c(Br)c([N+](=O)[O-])nn1CC(=O)Nc1ccc(C(C)C)cc1 | inconclusive: 14.1 µM [quencher, side channel, partial curve]
Cc1cc(NC(=O)Nc2ccc(N(C)C)cc2)c2cc(F)cc(F)c2n1 | inconclusive: 12.6 µM [quencher, side channel, partial curve]
O=C(Cn1cc(SCc2ccc(F)cc2)c2ccccc21)N1CCOCC1 | inactive
O=C(COc1ccc2ccccc2c1)Nc1ccccc1C(=O)O | inconclusive: 28.2 µM [quencher, side channel, single point]
O=C(O)c1ccc(Nc2ccc(Cl)c(Cl)c2)c([N+](=O)[O-])c1 | inconclusive: 25.1 µM [quencher, side channel, single point]
NC(=O)c1ccccc1C[C@H](C(=O)O)N1C(=O)c2ccc(C(=O)O)cc2C1=O | inactive
COCCn1c(=O)c(-c2cccc(C#N)c2)nc2cnc(N3CCOCC3)nc21 | inactive
CCc1nc2oc3cc(OC)ccc3c(=O)c2c(=O)n1Cc1ccccc1 | inconclusive: 8.91 µM [fluorescent, side channel, partial curve]
CCNc1ccc(Br)cc(C(=O)/C=C/c2c(Cl)cccc2Cl)c1=O | inconclusive: 20 µM [quencher, side channel, partial curve]
O=C(NC(=S)Nc1nc2c(ccc3ccccc32)s1)c1cccs1 | inconclusive: 10 µM [quencher, side channel, partial curve]
COCCCNc1nc2ccccc2nc1NS(=O)(=O)c1cc(Cl)ccc1Cl | inconclusive: 28.2 µM [quencher, side channel, partial curve]
COc1cccc(-c2ccnc3[nH]n(-c4ccccc4)c(=O)c23)c1 | inconclusive: 28.2 µM [quencher, side channel, single point]
